# Out of some 310,000 compounds screened, about 2,200 (0.71%) showed an effect of 50% or more. The effect is printed as a negative number. The list shows a part of the results.
# Molecular target: human ether-à-go-go-related gene (hERG) potassium channel (human, UniProt Q12809)
# Test: primary screen, population patch clamp on CHO cells stably expressing hERG
# Sequence of human ether-à-go-go-related gene (hERG) potassium channel (Q12809 whole entry, looked up): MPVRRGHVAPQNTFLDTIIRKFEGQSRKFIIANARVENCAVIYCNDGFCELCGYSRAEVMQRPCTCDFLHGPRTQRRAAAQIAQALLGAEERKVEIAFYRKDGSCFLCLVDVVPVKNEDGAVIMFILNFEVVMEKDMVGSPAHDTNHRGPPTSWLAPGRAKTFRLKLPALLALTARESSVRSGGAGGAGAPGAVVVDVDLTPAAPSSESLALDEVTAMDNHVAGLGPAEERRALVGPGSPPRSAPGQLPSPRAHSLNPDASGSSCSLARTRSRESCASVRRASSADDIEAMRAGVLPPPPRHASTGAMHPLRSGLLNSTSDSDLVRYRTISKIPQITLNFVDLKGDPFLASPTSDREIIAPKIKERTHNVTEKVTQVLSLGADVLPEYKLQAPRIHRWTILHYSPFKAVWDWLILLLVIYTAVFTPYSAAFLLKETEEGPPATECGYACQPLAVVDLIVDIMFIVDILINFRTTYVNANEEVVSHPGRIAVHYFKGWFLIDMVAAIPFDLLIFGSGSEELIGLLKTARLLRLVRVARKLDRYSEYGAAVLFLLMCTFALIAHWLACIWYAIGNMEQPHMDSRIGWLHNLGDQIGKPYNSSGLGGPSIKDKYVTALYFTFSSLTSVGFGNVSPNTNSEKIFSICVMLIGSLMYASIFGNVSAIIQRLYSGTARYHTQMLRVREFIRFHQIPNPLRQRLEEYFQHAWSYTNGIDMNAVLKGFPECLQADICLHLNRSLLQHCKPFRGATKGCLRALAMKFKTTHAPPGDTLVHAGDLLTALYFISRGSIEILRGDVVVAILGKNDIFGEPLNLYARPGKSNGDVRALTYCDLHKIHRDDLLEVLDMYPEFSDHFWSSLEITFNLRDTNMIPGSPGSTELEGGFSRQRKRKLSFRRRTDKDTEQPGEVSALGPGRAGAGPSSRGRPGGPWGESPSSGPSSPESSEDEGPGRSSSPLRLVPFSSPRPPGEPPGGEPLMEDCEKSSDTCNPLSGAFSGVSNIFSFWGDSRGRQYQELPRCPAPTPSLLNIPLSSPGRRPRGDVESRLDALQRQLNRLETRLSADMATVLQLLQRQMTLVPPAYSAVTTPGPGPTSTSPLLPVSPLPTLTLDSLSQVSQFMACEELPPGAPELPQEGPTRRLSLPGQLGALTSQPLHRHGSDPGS
row,Structure (SMILES),"hERG current change (%, negative = inhibition) at 1uM [%]"
1,O=C(Cn1ncc(Cl)c(Cl)c1=O)N1CCOCC1,12
2,CCOC(=O)c1c(CN2CCCCC2)n(C)c2cc(Br)c(O)cc12,-68.8
3,Cc1cc(C)cc(OCC(=O)N2N=C(C(F)(F)F)CC2(O)C(C)(C)C)c1 (centres unmarked),9.92
4,Cc1ccc2cccc(Oc3ncnc4scc(-c5ccc(Cl)cc5)c34)c2n1,-0.47
5,CCN1CCN(CC(=O)Nc2ccccc2)C(=O)C1=O,14
6,COC(=O)c1cc(C(=O)NCc2ccccc2)c(=O)[nH]c1C,4.07
7,CCO/C=C1/C(=O)N(Cc2ccccc2)C(=O)c2ccccc21,6.53
8,CCCCCCCCN1[C@@H](CC(=O)OC)c2cc(F)ccc2S1(=O)=O,-0.716
9,COc1cccc(C(=O)NCCS(=O)(=O)N2CCC3(CC2)OCCO3)c1,9.28
10,COc1ccc2nc(N3C(=O)CNC3=S)sc2c1,8.24
11,CSc1nc(-c2ccccc2)nc(NC(C)=O)c1C(C)=O,6.75
12,O=C(Nc1ccccc1-c1ccccc1)c1cccc([N+](=O)[O-])c1,0.868
13,O=C(CCCN1C(=O)/C(=C/c2ccco2)SC1=S)Nc1cccc(C(=O)O)c1,6.91
14,CN(C)N=Nc1ccc2nc[nH]c2c1,3.96
15,Cc1ccc(S(=O)(=O)N2CCN(CC(=O)Nc3ccc4c(c3)CCC4)CC2)cc1C,7.52
16,COC(=O)COc1ccc2c(=O)c(Oc3ccccc3)c(C)oc2c1,11.6
17,CC(C)OC(=O)C(C(=O)C(F)(F)F)c1cc(NS(=O)(=O)c2ccc3ccccc3c2)c2ccccc2c1O (centres unmarked),7.27
18,CC1CCc2ccccc2N1C(=O)c1cccs1 (centres unmarked),8.12
19,CCn1c(CC(=O)Nc2ccc(C)cc2)nnc1SCC(=O)NCCc1ccccc1,-4.71

row,Structure (SMILES),"hERG current change (%, negative = inhibition) at 1uM [%]"
1,C=C(C)CNC(=O)c1ccc(OC2CCN(S(=O)(=O)N(C)C)CC2)cc1,13.2
2,CN(C)[C@@H]1C(=O)C(C(N)=O)=C(O)[C@@]2(O)C(=O)C3=C(O)c4c(O)cccc4[C@@](C)(O)C3[C@H](O)C12.O (some centres unmarked),-3.5
3,O=C(c1ccccc1)N1N=C(c2ccccc2)CC1c1cccs1 (centres unmarked),9.97
4,CCN1CCN(c2ccc([N+](=O)[O-])cc2C=C2C(=O)NC(=O)NC2=O)CC1,-21.4
5,O=C(CN1C(=O)c2ccccc2C1=O)NCc1ccc(N2CCOCC2)cc1,11.8
6,Cc1ccc(S(=O)(=O)NCCc2cc3ccc(C)cc3[nH]c2=O)cc1,7.36
7,COc1ccc(C)cc1S(=O)(=O)NCCN1CCOCC1,12.5
8,COc1cc(CN(C(=S)NCC(=O)O)C2CCCC2)cc(OC)c1OC,18.1
9,CCNC(=S)NNC(=O)c1ccc2ncccc2c1,1.32
10,Clc1cc(NCc2ccccc2)ncn1,16.9
11,CCCCS(=O)(=O)Nc1ccc(C(=O)NCC2CCCO2)cc1 (centres unmarked),7.38
12,CCOC(=O)Nc1nnc(-c2cccc(OC)c2)s1,-3.94
13,CC(=O)c1c(C)[nH]c(C(=O)OCC(=O)N2CCCC2=O)c1C,11.5
14,CC(C)C[C@H](NC(=O)c1nc[nH]c1C(=O)N1CCC(C)CC1)C(=O)OC(C)(C)C,9.91
15,CCCCSc1nc(C)cc(C)c1S(=O)(=O)c1ccccc1C,8.01
16,O=C(N/N=C/c1ccccc1[N+](=O)[O-])c1cccs1,14.1
17,CCN(CC)CCn1c(=S)[nH]c2cc(C(=O)N3CC(C)CC(C)C3)ccc2c1=O (centres unmarked),11.4
18,COc1ccc(C(=O)NCCN2C(=O)S/C(=C\c3cccnc3)C2=O)c(OC)c1OC,-1.42
19,O=S(=O)(N/N=C/c1cn(Cc2ccccc2)c2ccccc12)c1ccccc1,6.23

row,Structure (SMILES),"hERG current change (%, negative = inhibition) at 1uM [%]"
1,CC(C)NC(=O)c1sc2nc(-c3cccs3)cc(-c3cccs3)c2c1N,-2.74
2,Nc1c(-c2ccccc2)cnc2c(-c3ccccc3)cnn12,10.8
3,CCOCc1nnc(NC(=O)c2cccc(OC)c2)s1,13.8
4,CC1=NN(c2ccccc2)C(=O)/C1=C/c1cc2cc(C)ccc2nc1N1CCCCC1,8.59
5,Cc1cc(N(CCCl)CCCl)ccc1/C=N/NC(=O)c1ccco1,9.76
6,CN(C(=O)COc1ccc(S(=O)(=O)N2CCOCC2)cc1[N+](=O)[O-])C1CCS(=O)(=O)C1 (centres unmarked),22.1
7,Cn1c(N)c(C(=O)CSc2nc3ccccc3c(=O)n2Cc2ccccc2)c(=O)n(C)c1=O,2.35
8,CN1CCN(c2ccc([N+](=O)[O-])c(Sc3ccccn3)c2)CC1,8.85
9,O=C(NCc1ccccc1)/C(=C/c1ccccc1)NC(=O)c1ccco1,-2.39
10,CC(=O)n1nc(-c2ccccc2)nc1NCc1ccc(N(C)C)cc1,-1.63
11,CCc1nnc(NC(=O)c2c(-c3ccccc3)noc2C)s1,9.07
12,COc1ccc(CC(=O)NCCN2CCOCC2)cc1,11.5
13,CCCCCCCCCC(=O)N1c2ccccc2NC(=O)C1CC(=O)Nc1ccc(C(=O)O)cc1 (centres unmarked),8.78
14,CS(=O)(=O)N1CCN(c2nnc(-c3ccccc3)c3ccccc23)CC1,-7.2
15,COC(=O)\C(C(C)=O)=C(/C=C/C=C/C=C/N(C)C)N(C)C,4.91
16,COc1ccc(C(=O)Nc2cc(Cl)ccc2OC(=O)c2ccc(OC)cc2)cc1,8.14
17,Fc1ccc(-n2nnnc2-c2ccccc2Cl)cc1,11.9
18,Cc1cccc(NS(=O)(=O)c2ccc(-c3cnc(C4CC4)o3)cc2)c1,17.5
